The full ranking holds about 33,000 sequences; the median of “E-score (-0.5 to 0.5)” is about -0.01, and the highest 2% start at about 0.26. This is one part of the list.
These sequences were tested against Ste12 (UniProt P13574) (assay: PBM E-score (8-mer binding enrichment) (E-score (-0.5 to 0.5)); higher = stronger / more preferred TF binding; most listed sequences are background and not binding sites). Details: protein concentration: 200 nM; construct: GST-DNA-binding domain.
Method: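 Universal 'all 10-mer' protein binding microarrays (Agilent AMADID 015681) probed with GST-tagged S. cerevisiae TFs (full-length or DBD) made by in vitro transcription/translation (PURExpress), about 100-200 nM. Bound TF was detected with fluorescent anti-GST. Each ungapped 8-mer (which stands for itself and its reverse complement) is scored by the PBM enrichment score (E-score), a modified Wilcoxon-Mann-Whitney statistic from -0.5 to +0.5, computed with the Universal PBM Analysis Suite. Scale: above 0.35 generally sequence-specific binding.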

| Sequence | PBM E-score |
| --- | --- |
| CTCGTGGC | -0.0643 |
| CCCCGATA | 0.0333 |
| AATAACGC | 0.0349 |
| TATATTGA | 0.245 |
| ACAACATC | -0.0874 |
| ATCCGATC | 0.162 |
| GCTTATCA | 0.0662 |
| CTAAAAGA | 0.0876 |
| AGCACTAT | -0.29 |
| ATCGAATG | 0.0932 |
| CTATGTAA | 0.0851 |
| CGATCCAA | -0.0517 |
| AGTGGCTG | 0.0252 |
| AGGCCTGA | 0.0596 |
| CACACTTA | -0.0107 |
| GAGGAGTA | -0.0707 |
| GCAACGTA | 0.0118 |
| CGACCAAA | 0.167 |
| CGTATGGA | 0.0821 |
| AACTAGTT | 0.0497 |
| GTTCTCCA | -0.0071 |
| AAATATAC | 0.225 |
| GGATCATA | 0.00836 |
| TAGGTGGA | -0.0849 |
| CCATATAG | -0.111 |

| Sequence | PBM E-score |
| --- | --- |
| GCTGAGTA | -0.0751 |
| ATATACCA | -0.101 |
| ATTAATGG | 0.219 |
| ATACCGAC | -0.0269 |
| CCAACTGG | -0.0346 |
| ATTAACTA | 0.157 |
| ACTCGTAC | -0.187 |
| GGCTAACA | -0.129 |
| GGGCACCC | -0.114 |
| ACCAGTAT | 0.0354 |
| AAGAAACA | 0.285 |
| TACCACTA | -0.0201 |
| CCGATTAC | -0.0622 |
| AATTGAGA | 0.164 |
| GAGGCCAA | -0.0479 |
| CAGGACAG | -0.157 |
| ATCAAATC | 0.235 |
| AGAATACA | 0.0801 |
| GATGGCGA | -0.0467 |
| CGGGAGGA | -0.00159 |
| AGGGCAGG | -0.0843 |
| ACTGGGTA | -0.0106 |
| AAATTTCA | 0.0583 |
| ACCTGGCA | -0.17 |
| ATCTTATG | 0.161 |

| Sequence | PBM E-score |
| --- | --- |
| TGCTAACA | -0.098 |
| CGTTTCAA | 0.46 |
| ATTGGATA | 0.0168 |
| GTAGACCA | -0.189 |
| AATATCGT | 0.134 |
| ACGATGAG | -0.00735 |
| GTGTGCAA | -0.0711 |
| GCTGTTGA | 0.0409 |
| CCCTAATA | -0.149 |
| GCATTCAA | 0.0885 |
| GAGACATA | 0.203 |
| CGATCACA | 0.0271 |
| ACTAGTAC | -0.0845 |
| CTCGAAAG | 0.0019 |
| ACTCCCAA | 0.189 |
| CGTTCTAG | -0.0373 |
| CTAGACAG | 0.0353 |
| AATTAAGA | 0.208 |
| GATCTTCA | 0.0189 |
| ACTAAAAA | 0.203 |
| GCCTTTTA | 0.0766 |
| CAATGACA | -0.00173 |
| CTACAGCA | 0.039 |
| GAGACCAA | 0.0695 |
| ACCACGAG | -0.166 |

| Sequence | PBM E-score |
| --- | --- |
| AGCTTGTC | 0.043 |
| AATGATCG | -0.0109 |
| ATTTATAG | 0.0961 |
| CGCCTCGC | 0.115 |
| CGCCCGTA | -0.139 |
| ACTATGAT | 0.0838 |
| ACATTAGC | 0.0463 |
| CATTAGAA | 0.13 |
| ACTTACTC | -0.15 |
| ATGGGACA | 0.0115 |
| GCACGGCC | 0.0348 |
| CGCCTGAG | -0.129 |
| GAAATAAA | 0.282 |
| ACACACCT | 0.0972 |
| CGACCGCG | -0.115 |
| AATGGTAA | 0.128 |
| CAAACTGA | 0.114 |
| CATAAGTA | -0.019 |
| CCACCCCA | 0.0623 |
| CGGACGCA | -0.0811 |
| ATATTACG | 0.154 |
| CGTTAAGC | -0.0815 |
| GGCTTACC | -0.101 |
| AAAACACT | 0.215 |
| CTTCACTC | -0.0309 |

| Sequence | PBM E-score |
| --- | --- |
| CTGTTGCA | 0.193 |
| AGACTGGC | -0.267 |
| GCTATCTA | -0.126 |
| ACCTCTTC | 0.0129 |
| AAAACGCC | 0.099 |
| GAGGGCCA | 0.0172 |
| TCCCAGCA | -0.0236 |
| CATTGTGG | 0.0722 |
| ATTCATTA | 0.24 |
| CATCGTTA | 0.022 |
| GACCTCAC | -0.15 |
| AACAGATT | 0.146 |
| CGGGTTTC | 0.323 |
| AAGCCGTG | -0.0165 |
| AGGCCTAC | 0.00818 |
| ATATCCTG | -0.00091 |
| CGGTTAAC | 0.139 |
| CGGTATAA | 0.155 |
| GTACTGGA | 0.123 |
| ACGTTGGA | -0.0164 |
| AGTCCCGC | -0.149 |
| CAGCCTTC | -0.172 |
| GAACGTAA | -0.00641 |
| CCCTAACA | 0.223 |
| AAGCTGTC | -0.159 |

| Sequence | PBM E-score |
| --- | --- |
| GAGTCTGC | -0.232 |
| AGGCATCG | -0.0261 |
| ACCTGCGC | -0.0192 |
| AGGGACGC | -0.155 |
| AGAACGTC | -0.0105 |
| GATTCTCA | -0.109 |
| AACGAGAT | 0.0103 |
| AGGCCCTC | -0.0675 |
| CCAAGTAC | -0.114 |
| TACACTGA | 0.173 |
| GCCCTGAC | -0.129 |
| ATGATTAA | 0.156 |
| TCACACGA | 0.0776 |
| ACAGACTG | 0.0359 |
| ACATTCGT | -0.131 |
| AGTATCGG | -0.0389 |
| GAAGCGAA | 0.101 |
| ATCGGCCG | -0.022 |
| CTCCAATA | 0.0856 |
| CAATTAGG | 0.112 |
| ACAAAGGA | 0.0509 |
| AGACGTCG | -0.0691 |
| GACGGTAA | 0.0275 |
| CACCTATA | 0.0143 |
| TAGCCGCA | -0.136 |

| Sequence | PBM E-score |
| --- | --- |
| GTCATGGA | -0.0644 |
| AAAGGACA | 0.0164 |
| CGGAAACC | 0.032 |
| ACAAATGC | 0.0293 |
| AGAAAACA | 0.152 |
| AACGGGGT | -0.0712 |
| CACTGAGC | -0.00065 |
| GTGAGAAC | -0.0923 |
| ATTAATTC | 0.308 |
| AGGGATCA | -0.0394 |
| AGCAACCC | -0.0729 |
| CCCTCAAA | 0.097 |
| GTAAAGAC | -0.0181 |
| CATGGACA | -0.161 |
| CAGCTATG | -0.123 |
| ATAATGTA | 0.0922 |
| CAGTGTTA | 0.0761 |
| AACAGGCG | -0.146 |
| GCGTGGCA | -0.238 |
| CCGCTTGA | 0.0406 |
| ACCCGACC | 0.0321 |
| GATCGACC | 0.0331 |
| TAGGGCAA | -0.184 |
| CAGTCATA | -0.0119 |
| AGTTTCTC | -0.0852 |

| Sequence | PBM E-score |
| --- | --- |
| AAATGTAA | 0.226 |
| GGCCTGAA | 0.0123 |
| GGAAACCA | -0.103 |
| ACTTGTCG | 0.131 |
| CAATCAAC | -0.0439 |
| ACAGCGTA | -0.163 |
| GAAGGACA | 0.0925 |
| ACTCTACG | -0.173 |
| CATTCAGC | -0.183 |
| AAGGGCAA | -0.0993 |
| ATACCCCG | 0.0945 |
| AGTGACAG | -0.057 |
| GATCAGAA | -0.151 |
| CTACAAAG | -0.00734 |
| CATGTCCA | 0.0467 |
| CTACCCAA | 0.0898 |
| GTCGCGCA | 0.0427 |
| GCGAGCCA | -0.0412 |
| CAGATCGG | 0.00447 |
| CGTACAGC | -0.0963 |
| ACTCTGCA | 0.0406 |
| ATTATTGG | -0.0199 |
| GCTAAAGC | -0.25 |
| CCTAGATC | -0.112 |
| CCTCTTTA | -0.0691 |

| Sequence | PBM E-score |
| --- | --- |
| GTAGTGTA | -0.104 |
| ATGGACAT | -0.0353 |
| AACCCATC | -0.0372 |
| CCCGTAAG | -0.0733 |
| ACCATTTC | 0.0766 |
| CAAAATAC | 0.115 |
| CCAATTGA | 0.194 |
| GCCCTCCC | 0.115 |
| AGCGATAT | 0.168 |
| ATGCACTA | -0.191 |
| GTTATTCA | 0.0838 |
| GACCCAAA | 0.164 |
| CGCCACCC | -0.0137 |
| GGCAAGAC | -0.24 |
| TAAGTGAA | 0.172 |
| ATCACCTG | 0.0378 |
| CTGACGTA | -0.0644 |
| CTCGGTGA | 0.0422 |
| AGGATCAC | -0.106 |

Source: the supplement of paper PMC3334620
